Measurements taken from the BET-seq Pho4 binding data (Le et al. 2018).
The other results are listed elsewhere or left out. These are noisy estimates, calculated here from bound and input reads.

Target: T1, Pho4 (S. cerevisiae) (UniProt P07270)
T1 sequence: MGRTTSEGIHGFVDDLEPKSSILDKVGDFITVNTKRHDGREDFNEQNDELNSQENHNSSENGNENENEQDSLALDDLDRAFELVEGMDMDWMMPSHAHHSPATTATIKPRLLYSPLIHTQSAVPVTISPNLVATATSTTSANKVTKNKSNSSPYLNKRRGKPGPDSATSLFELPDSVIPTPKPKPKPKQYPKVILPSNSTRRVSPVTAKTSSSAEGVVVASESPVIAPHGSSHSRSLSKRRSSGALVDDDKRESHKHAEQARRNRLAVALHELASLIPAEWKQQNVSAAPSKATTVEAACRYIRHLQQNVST
Assay: relative binding free energy (BET-seq); higher = weaker binding
Conditions: reference: library average

Row | Sequence | relative binding free energy
1 | GAATTCACGTGGTTAT | 0.25 kcal/mol
2 | TTTGTCACGTGTGTCC | 0.07 kcal/mol
3 | TAGAACACGTGAGGGT | 0.27 kcal/mol
4 | ATGTTCACGTGAAAGT | 0.46 kcal/mol
5 | ATGGACACGTGCATTG | 0 kcal/mol
6 | TAGCGCACGTGGGATG | -0.24 kcal/mol
7 | AGTTTCACGTGCGGTG | 0.31 kcal/mol
8 | TGTAGCACGTGTGCCG | 0.04 kcal/mol
9 | GGTAGCACGTGCGAGG | -0.13 kcal/mol
10 | AGCTTCACGTGGGTGA | -0.03 kcal/mol
11 | TAGTACACGTGAAAGG | 0.14 kcal/mol
12 | AGAGACACGTGCTGGG | 0.02 kcal/mol
13 | GAGGACACGTGTAGTG | 0.15 kcal/mol
14 | TTTGGCACGTGTCAAG | -0.03 kcal/mol
15 | GTAAGCACGTGGCAGG | -0.15 kcal/mol
16 | TAATTCACGTGGTAGC | 0.16 kcal/mol
17 | GGTTGCACGTGGGACA | -0.09 kcal/mol
18 | TAAGGCACGTGAGGTG | 0.11 kcal/mol
19 | AGGCACACGTGGGTAA | -0.01 kcal/mol
20 | ATTCGCACGTGATGAT | 0.11 kcal/mol
21 | TAAGGCACGTGGTATT | -0.26 kcal/mol
22 | GGCATCACGTGGGAGG | 0.16 kcal/mol
23 | GTGTTCACGTGCTGGC | 0.19 kcal/mol

Row | Sequence | relative binding free energy
24 | TTAGTCACGTGACTTG | 0.26 kcal/mol
25 | ATTGACACGTGTAGGT | 0 kcal/mol
26 | GAGAGCACGTGTCGGT | 0.01 kcal/mol
27 | GGTGCCACGTGGTTTG | -0.13 kcal/mol
28 | GTGATCACGTGTTTCT | 0.17 kcal/mol
29 | GAGGCCACGTGCGGGG | -0.15 kcal/mol
30 | AATGACACGTGTGGAA | 0.16 kcal/mol
31 | AAGCGCACGTGGTCGG | -0.08 kcal/mol
32 | ACGGTCACGTGGGAAT | 0.05 kcal/mol
33 | TGCGCCACGTGGTGTG | -0.24 kcal/mol
34 | AATGACACGTGGTAAG | 0.03 kcal/mol
35 | AGGCGCACGTGCGGGC | -0.16 kcal/mol
36 | TTGGGCACGTGCCTTT | -0.26 kcal/mol
37 | TTGAGCACGTGAATGG | 0.21 kcal/mol
38 | AGTTACACGTGTTTAA | 0.09 kcal/mol
39 | TGCTTCACGTGCAAGG | 0.29 kcal/mol
40 | AGGGCCACGTGCAGGG | -0.21 kcal/mol
41 | TATGGCACGTGGGAAC | -0.07 kcal/mol
42 | AGGCGCACGTGGTAGC | -0.11 kcal/mol
43 | TAGGTCACGTGAAGTC | 0.4 kcal/mol
44 | TGGCACACGTGGGAGG | 0 kcal/mol
45 | GGGCTCACGTGTTCGT | 0.46 kcal/mol
46 | GTGCTCACGTGGATCG | 0.36 kcal/mol

Row | Sequence | relative binding free energy
47 | GGAGCCACGTGTAGGT | -0.08 kcal/mol
48 | GGTAGCACGTGTGCTT | -0.09 kcal/mol
49 | CTAGGCACGTGGGTAT | -0.19 kcal/mol
50 | CGTGACACGTGTGTAG | 0.11 kcal/mol
51 | TCTTCCACGTGGGTTT | 0.08 kcal/mol
52 | AGTATCACGTGTGAGG | 0.21 kcal/mol
53 | AGTAACACGTGTGGGC | 0.03 kcal/mol
54 | TTGATCACGTGTGACG | 0.26 kcal/mol
55 | GATAGCACGTGAGTTT | 0.33 kcal/mol
56 | TCGATCACGTGGCGTG | 0.13 kcal/mol
57 | TGTTACACGTGTGAGA | 0.18 kcal/mol
58 | GTGTCCACGTGATGCG | 0.18 kcal/mol
59 | GTGGGCACGTGTTTCA | -0.1 kcal/mol
60 | TGGGTCACGTGTAAAT | 0.18 kcal/mol
61 | TGAATCACGTGGTGCT | -0.03 kcal/mol
62 | AGCGGCACGTGGGTGT | -0.27 kcal/mol
63 | CTTATCACGTGGAGTG | 0.02 kcal/mol
64 | GCGGTCACGTGGCAGT | 0.12 kcal/mol
65 | TTATGCACGTGCATAT | -0.09 kcal/mol
66 | CGTCTCACGTGTGGGG | 0.14 kcal/mol
67 | CAGGGCACGTGGGGAT | -0.21 kcal/mol
68 | TGTAGCACGTGTTTTA | -0.06 kcal/mol
69 | GGAAGCACGTGGCGTA | 0.01 kcal/mol

Row | Sequence | relative binding free energy
70 | AGAAGCACGTGTGTTG | -0.03 kcal/mol
71 | GGTCGCACGTGTGGGG | -0.05 kcal/mol
72 | ATGATCACGTGTTTCG | 0.04 kcal/mol
73 | GACTTCACGTGTGTGG | 0.45 kcal/mol
74 | CGGGTCACGTGATGAT | 0.28 kcal/mol
75 | TTGTACACGTGTGTAT | 0.14 kcal/mol
76 | GTTGCCACGTGAATGG | 0.11 kcal/mol
77 | TCATACACGTGTGTAG | 0.05 kcal/mol
78 | TATAGCACGTGTTGCG | 0.01 kcal/mol
79 | GGGTACACGTGATTTA | 0.07 kcal/mol
80 | GCGGTCACGTGTGCTG | 0.16 kcal/mol
81 | TGTTTCACGTGAAGTC | 0.32 kcal/mol
82 | AGTGTCACGTGCGGGC | -0.03 kcal/mol
83 | GGGCGCACGTGGTTTG | 0.03 kcal/mol
84 | TATTACACGTGTGCAG | 0.21 kcal/mol
85 | GGAGGCACGTGGACAT | 0.03 kcal/mol
86 | GTGGTCACGTGGAATT | 0.3 kcal/mol
87 | CAGTTCACGTGGAGTT | 0.2 kcal/mol
88 | TTAATCACGTGCGAGT | 0.22 kcal/mol
89 | TAGGGCACGTGCTGGT | -0.14 kcal/mol
90 | ATGAACACGTGTCAGT | 0.11 kcal/mol
91 | GTTGGCACGTGTTCAT | 0.08 kcal/mol
92 | AAGGGCACGTGACTGT | -0.01 kcal/mol

Row | Sequence | relative binding free energy
93 | ATTGTCACGTGGAGTG | 0.06 kcal/mol
94 | CGGTACACGTGTGCGT | 0.09 kcal/mol
95 | GTTTGCACGTGGGGAG | -0.04 kcal/mol
96 | TTGTCCACGTGATGTG | 0.3 kcal/mol
97 | ATTGGCACGTGGAGCG | -0.07 kcal/mol
98 | GCGTTCACGTGATTGG | 0.44 kcal/mol
99 | TGAGACACGTGATATT | 0.08 kcal/mol
100 | TTAGGCACGTGAAAAA | 0.13 kcal/mol
101 | AGGTGCACGTGATAAG | 0.11 kcal/mol
102 | TTTAGCACGTGTATAT | -0.06 kcal/mol
103 | GAGTTCACGTGGGGCT | 0.15 kcal/mol
104 | TGTGGCACGTGTATAT | -0.06 kcal/mol
105 | GGATTCACGTGAGGAT | 0.42 kcal/mol
106 | TGTCGCACGTGGAGGC | -0.03 kcal/mol
107 | TGGGGCACGTGCTGCT | -0.22 kcal/mol
108 | GTGGGCACGTGGTAGG | -0.1 kcal/mol
109 | GGGTGCACGTGCCAGT | 0.01 kcal/mol
110 | TGATGCACGTGCGTAA | -0.06 kcal/mol
111 | TGAAGCACGTGGGGCT | -0.18 kcal/mol
112 | CTAGACACGTGGAGGT | 0 kcal/mol
113 | CGTTACACGTGCTGGT | 0.11 kcal/mol
114 | GTTTTCACGTGTCTTG | 0.43 kcal/mol
115 | AGGAACACGTGAGAGT | 0.19 kcal/mol
